# Test results taken from PMC10668032.
# This is one part of the list. At the low end of the ranking, values are background and their order means little.
# Molecular target: SIX1-Q177R homeodomain (UniProt Q15475)
# Test: universal protein binding microarray
# Details: Universal all-10-mer PBM (8x60K, AMADID 030236), 300 nM GST-tagged protein, Alexa Fluor 488 anti-GST; buffer, salt, pH and temperature not stated; high values mean tight binding; most listed sequences are background and not binding sites; double strand, one strand shown
row,Sequence,binding signal
1,AAAAACAG,-0.223 E-score
2,TACGAATA,-0.0556 E-score
3,TGGCCAAA,-0.0967 E-score
4,ACAAAGCT,-0.034 E-score
5,CGATTGAC,-0.154 E-score
6,ATCTACAG,-0.133 E-score
7,AAAACGGA,-0.157 E-score
8,GTGCGAGA,-0.0792 E-score
9,CAAAGGCG,0.114 E-score
10,CGAACCAA,-0.0999 E-score
11,ACAGCGTA,-0.0867 E-score
12,AGAGCTTA,-0.186 E-score
13,GCTGTCAC,0.0253 E-score
14,CCAGTGGA,-0.202 E-score
15,GATACTAA,0.129 E-score
16,CGGACTGA,-0.23 E-score
17,CACTCAAC,0.168 E-score
18,CTTACGGA,-0.114 E-score
19,GGACCAGA,-0.0439 E-score
20,GACATTCC,-0.119 E-score
21,AGACGAAG,-0.165 E-score
22,ACATGGAT,-0.0392 E-score
23,CGGGAGCC,0.0631 E-score
24,GGCAGGAC,0.11 E-score
25,GCACCGTA,0.201 E-score

row,Sequence,binding signal
1,AGCGGGCA,-0.159 E-score
2,ATACTTGC,-0.119 E-score
3,ACCCCCTC,0.324 E-score
4,AGTGAGGG,0.00977 E-score
5,CAACTCGG,0.114 E-score
6,CCAGGCAC,-0.0485 E-score
7,CAGTTCAC,-0.0459 E-score
8,GTCCAACA,0.216 E-score
9,ACCCTTAA,0.175 E-score
10,TCACCAGA,-0.0487 E-score
11,TAATCGGA,0.0637 E-score
12,CACGTCCA,0.108 E-score
13,ATACGCCA,0.151 E-score
14,GAGAGCTC,-0.242 E-score
15,CAATGGGC,-0.085 E-score
16,ATTCGTAG,0.028 E-score
17,CTGCAGTC,-0.144 E-score
18,ACGATTAC,0.0246 E-score
19,CTTTTTAC,-0.0364 E-score
20,AGACCAAA,-0.37 E-score
21,CTTAACAC,0.435 E-score
22,GATGACAC,0.466 E-score
23,ACGGTCGC,-0.237 E-score
24,CGTAACAC,0.41 E-score
25,GGTCTTAA,-0.02 E-score

row,Sequence,binding signal
1,CGAGAGCG,-0.244 E-score
2,CCGAGTTC,0.0412 E-score
3,CGTAAGCA,-0.172 E-score
4,CTCCACAG,-0.051 E-score
5,AGATAAAC,-0.122 E-score
6,ACCGCTTG,0.067 E-score
7,GTATTGCA,0.128 E-score
8,AGAGGGTC,-0.0271 E-score
9,CTCACTAA,-0.0499 E-score
10,CTGAAGTA,-0.321 E-score
11,AACGCATT,-0.0289 E-score
12,CACTGCGA,0.143 E-score
13,CAGCCGGC,-0.101 E-score
14,ATCTCGAG,-0.0565 E-score
15,GAGGGGCA,-0.00898 E-score
16,CCTCGCGC,-0.162 E-score
17,AAAGAATT,-0.234 E-score
18,AACCGAGT,0.0654 E-score
19,GACATGAC,0.0601 E-score
20,CGCCACTC,0.125 E-score
21,AGAGGTTG,-0.0594 E-score
22,CAAACGAC,-0.0375 E-score
23,AACCCAAG,-0.0688 E-score
24,CTATGTAA,-0.0875 E-score
25,CTTTAGAA,-0.108 E-score

row,Sequence,binding signal
1,AGGAGCGG,0.0175 E-score
2,GAGACTTA,-0.0386 E-score
3,ACAAGCCC,-0.0233 E-score
4,AGCTACTA,-0.115 E-score
5,CCATAGTA,0.00935 E-score
6,GGGGCCAC,-0.129 E-score
7,GGACCGCA,-0.0821 E-score
8,TACTGGAA,0.0148 E-score
9,GAGCATGC,-0.182 E-score
10,AAGTACAC,0.425 E-score
11,AATCGGCC,-0.169 E-score
12,CCACACGG,0.197 E-score
13,CTTAGTGC,-0.179 E-score
14,AATAATTG,-0.12 E-score
15,ACACACGG,0.301 E-score
16,GAGAAATC,-0.342 E-score
17,CGAACCGC,0.0107 E-score
18,ATACGACC,-0.0273 E-score
19,CCAGTCCA,0.0437 E-score
20,AATACGAA,0.00567 E-score
21,AGCCGAGG,0.0198 E-score
22,CAGGAAGA,-0.111 E-score
23,AGATTGCA,-0.0732 E-score
24,CCTTGACG,-0.102 E-score
25,ATCAGTAG,-0.048 E-score

row,Sequence,binding signal
1,CCGTGAAC,0.0207 E-score
2,GCACATCA,-0.282 E-score
3,CGCCCTAC,0.0722 E-score
4,CTAGTCTA,-0.133 E-score
5,AAGATAGT,-0.03 E-score
6,TGTGGGAA,0.0276 E-score
7,CAAACCAC,0.0221 E-score
8,GAGGGACA,0.0753 E-score
9,ATGGCCAG,-0.198 E-score
10,AAGTAGAT,-0.16 E-score
11,TCCCGGCA,-0.015 E-score
12,TACTATAA,0.0696 E-score
13,AATGACCG,-0.135 E-score
14,CATTGGAG,-0.0307 E-score
15,GACCGTTA,-0.192 E-score
16,AATGTCAC,0.0557 E-score
17,CAAGGGGC,0.0814 E-score
18,GAAGAACC,0.052 E-score
19,CTTGGCAA,-0.207 E-score
20,ATGAAGTC,-0.161 E-score
21,AACGTATG,-0.324 E-score
22,ACATAGGA,-0.043 E-score
23,TACTTAGA,-0.00505 E-score
24,GTAGAAAA,-0.166 E-score
25,GAGTATGA,0.0473 E-score

row,Sequence,binding signal
1,GTGACATA,-0.0585 E-score
2,TCGCTAAA,-0.044 E-score
3,CGGGGTTA,0.22 E-score
4,AGGATGGG,0.0362 E-score
5,ACTAAGCA,-0.0899 E-score
6,AAGTTGAA,-0.0495 E-score
7,AACGCGTA,-0.221 E-score
8,CGCACGAC,0.187 E-score
9,CATCATAC,0.034 E-score
10,AACAACTT,-0.277 E-score
11,ACGAACCC,0.118 E-score
12,CAACTACG,0.116 E-score
13,TCAGCCCA,0.0774 E-score
14,CGGATCTA,0.00671 E-score
15,GGAATCAA,-0.0343 E-score
16,ACAGGTAT,0.0906 E-score
17,CACACTGG,0.264 E-score
18,AAGGCGCG,-0.0377 E-score
19,AAATGCGG,-0.0522 E-score
20,ACATGTGC,-0.141 E-score
21,GGGGTCCA,0.268 E-score
22,AACCCGGC,-0.0133 E-score
23,CTCGACTA,-0.111 E-score
24,ATTTACAA,0.0157 E-score
25,ATGTTGCG,-0.195 E-score

row,Sequence,binding signal
1,AGACGACT,0.0752 E-score
2,GGTCCTCA,-0.0992 E-score
3,AGCTAGAT,0.008 E-score
4,AAAATCGC,-0.33 E-score
5,ACTTTGGC,-0.198 E-score
6,AGCGTTGC,-0.234 E-score
7,CATACGAG,-0.224 E-score
8,AAAACCTG,-0.0973 E-score
9,CAACGTAC,-0.000275 E-score
10,CATTACTC,0.173 E-score
11,GCGCCTAA,-0.243 E-score
12,TACCATAA,0.0229 E-score
13,ACTCTGAC,0.172 E-score
14,CGTAGACG,-0.324 E-score
15,TCATGAAA,0.00196 E-score
16,GGCTGAAC,0.133 E-score
17,CAGTGATG,-0.0618 E-score
18,GCAGCACC,0.219 E-score
19,ATATTATC,-0.138 E-score
20,GAGTTTAC,0.00043 E-score
21,AGGGCGGG,0.0483 E-score
22,ATGATACC,0.335 E-score
